{"source": "PubChem BioAssay (NCATS)", "system": "Zika virus NS2B-NS3 protease (linked construct)", "test": "Primary screen NINDS Rhodamine qHTS for Zika virus inhibitors (AID 1347160); also: nearly all actives have a fitted effect of over 55% in size", "conditions": "purified NS2B-NS3 protease, Rhodamine110 substrate fluorescence; series mostly up to 33.1 µM", "how_it_was_run": "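Purified NS2B-NS3 protease with the NS2B hydrophilic domain joined by a flexible linker (25 nM) in 10 mM Tris-HCl pH 8.0, 0.01% Tween 20, preincubated 15 min at RT with compound; Rhodamine110 peptide substrate 1.5 µM; fluorescence change over 15 min; 4-parameter Hill fit.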", "note": "Inconclusive results are not listed. Calls follow the shape of the dose curve; as a rule, active = well fitted inhibition curve with a large enough effect; inconclusive = small, poorly fitted or top-dose-only effect; inactive = no such curve, though single readings can be large or run the other way. The source holds several records for some structures; these can differ, active in one and inactive in another. A number of entries come with more than one value. They are shown here; other results are not. There may be further records. Values that stand side by side repeat one measurement (runs, samples, wells, individuals or studies). What stands in brackets tells the records apart. The letters are not those of the source and start again with each entry. Potency is read from the fitted curve at half-maximal effect."}
{"compound": "CC(=O)O[C@H]1C[C@@]2(C)[C@@H](CC[C@H]3[C@@]4(C)C=CC(=O)[C@@H](C)[C@@H]4[C@H](OC(C)=O)C(=O)[C@@]32C)/C1=C(\\CCC=C(C)C)C(=O)O", "values": [{"measurement": "Potency", "value": "inactive [sample A] and active: 17.5 µM [sample B]"}]}
